Measured values: paper PMC12402098, “YTHDF3 recognizes DNA N6-methyladenine and recruits ALKBH1 for 6mA removal from genomic DNA” (The EMBO Journal, 2025)
No constants are given. Whether binding was seen depends on the method and setting. Binding seen in cells or lysates may run through a third protein. Sequences can lack the tags named with a protein.

Target: T1, YTHDF3-MTbind-Flag (L455M/L461V/V482A/A487T/Y488C/E502D/K504R) (UniProt Q7Z739)
T1 sequence: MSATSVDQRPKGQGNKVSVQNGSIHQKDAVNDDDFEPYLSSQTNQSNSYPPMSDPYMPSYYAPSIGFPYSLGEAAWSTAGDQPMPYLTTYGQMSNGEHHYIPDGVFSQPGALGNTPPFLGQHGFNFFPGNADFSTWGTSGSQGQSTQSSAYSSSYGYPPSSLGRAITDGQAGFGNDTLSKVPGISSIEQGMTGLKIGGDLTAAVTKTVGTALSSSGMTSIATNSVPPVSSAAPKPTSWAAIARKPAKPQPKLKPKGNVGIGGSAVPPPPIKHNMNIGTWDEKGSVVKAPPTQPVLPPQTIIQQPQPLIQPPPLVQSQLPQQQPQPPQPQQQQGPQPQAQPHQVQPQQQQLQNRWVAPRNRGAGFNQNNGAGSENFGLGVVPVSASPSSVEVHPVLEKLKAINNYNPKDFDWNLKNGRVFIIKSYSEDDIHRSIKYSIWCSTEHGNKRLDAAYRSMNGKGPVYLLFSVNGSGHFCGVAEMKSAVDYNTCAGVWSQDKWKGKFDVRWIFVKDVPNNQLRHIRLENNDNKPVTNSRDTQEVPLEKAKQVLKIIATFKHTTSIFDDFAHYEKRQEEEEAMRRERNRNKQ
Assay: co-IP; anti-FLAG or anti-HA antibodies and protein A/G agarose beads; transfected cells (HeLa in Fig. 4A); western blot

B1: ALKBH1 (endogenous) (enzyme, UniProt Q13686 1-389)
chain: MGKMAAAVGSVATLATEPGEDAFRKLFRFYRQSRPGTADLEGVIDFSAAHAARGKGPGAQKVIKSQLNVSSVSEQNAYRAGLQPVSKWQAYGLKGYPGFIFIPNPFLPGYQWHWVKQCLKLYSQKPNVCNLDKHMSKEETQDLWEQSKEFLRYKEATKRRPRSLLEKLRWVTVGYHYNWDSKKYSADHYTPFPSDLGFLSEQVAAACGFEDFRAEAGILNYYRLDSTLGIHVDRSELDHSKPLLSFSFGQSAIFLLGGLQRDEAPTAMFMHSGDIMIMSGFSRLLNHAVPRVLPNPEGEGLPHCLEAPLPAVLPRDSMVEPCSMEDWQVCASYLKTARVNMTVRQVLATDQNFPLEPIEDEKRDISTEGFCHLDDQNSEVKRARINPDS
- binding: no binding
